The whole screen tested about 310,000 compounds, of which about 2,200 (0.71%) showed an effect of 50% or more. The effect is printed as a negative number. The list shows a part of the results.

From article PMC4336329 (PLoS ONE, 2015) come the findings set out here.

Chain of human ether-à-go-go-related gene (hERG) potassium channel (Q12809 whole entry, looked up): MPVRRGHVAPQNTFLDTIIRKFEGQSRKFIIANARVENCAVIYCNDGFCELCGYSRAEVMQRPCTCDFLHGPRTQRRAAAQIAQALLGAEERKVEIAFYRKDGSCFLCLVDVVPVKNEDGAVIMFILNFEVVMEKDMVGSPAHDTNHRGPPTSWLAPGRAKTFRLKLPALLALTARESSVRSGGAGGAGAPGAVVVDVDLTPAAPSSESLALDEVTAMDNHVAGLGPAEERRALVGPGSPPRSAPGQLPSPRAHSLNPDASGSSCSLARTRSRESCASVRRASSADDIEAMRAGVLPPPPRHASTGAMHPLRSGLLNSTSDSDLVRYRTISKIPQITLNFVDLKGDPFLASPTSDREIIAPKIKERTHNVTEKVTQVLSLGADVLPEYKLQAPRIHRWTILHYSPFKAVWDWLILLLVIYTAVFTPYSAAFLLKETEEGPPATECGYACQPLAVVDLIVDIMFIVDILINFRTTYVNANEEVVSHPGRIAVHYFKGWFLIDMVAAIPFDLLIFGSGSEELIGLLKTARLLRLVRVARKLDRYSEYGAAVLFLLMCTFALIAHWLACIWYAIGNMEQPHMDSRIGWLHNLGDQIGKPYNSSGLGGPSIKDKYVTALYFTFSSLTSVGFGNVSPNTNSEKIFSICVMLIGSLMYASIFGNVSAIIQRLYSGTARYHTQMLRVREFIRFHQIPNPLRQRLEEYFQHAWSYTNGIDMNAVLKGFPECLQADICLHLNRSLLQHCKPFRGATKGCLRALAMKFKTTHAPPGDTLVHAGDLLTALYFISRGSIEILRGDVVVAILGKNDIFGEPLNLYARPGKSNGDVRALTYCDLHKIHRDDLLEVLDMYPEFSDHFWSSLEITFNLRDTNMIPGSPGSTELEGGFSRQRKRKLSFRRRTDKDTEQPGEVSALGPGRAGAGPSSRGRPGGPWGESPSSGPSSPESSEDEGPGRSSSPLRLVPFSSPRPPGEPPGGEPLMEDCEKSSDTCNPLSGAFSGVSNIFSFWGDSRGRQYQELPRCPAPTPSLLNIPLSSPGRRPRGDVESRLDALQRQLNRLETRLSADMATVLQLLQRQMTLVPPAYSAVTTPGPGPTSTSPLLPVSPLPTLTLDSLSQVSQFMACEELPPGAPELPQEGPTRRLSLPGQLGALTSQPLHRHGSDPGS

The assay addresses human ether-à-go-go-related gene (hERG) potassium channel (human, UniProt Q12809). In words: primary screen, population patch clamp on CHO cells stably expressing hERG.
As to `CC(=O)NC(Cc1ccc(F)cc1)C(=O)NC1CCN(c2nnnn2-c2ccccc2)CC1` (centres unmarked), the “hERG current change (%, negative = inhibition) at 1uM” value is reported as 10.6%.

Take `CCOC(=O)C1CCN(C(=O)c2ccc(C)c(S(=O)(=O)N3CCCC3)c2)CC1`: the “hERG current change (%, negative = inhibition) at 1uM” value turned out to be 18.1%.

On to `Cc1ccc(NC(=O)COC(=O)CSCC(=O)Nc2cc(C)on2)c(C)c1`, for which the “hERG current change (%, negative = inhibition) at 1uM” value came to 11%.

`O=C(NCc1ccncc1)Nc1ccccc1Cl`: the “hERG current change (%, negative = inhibition) at 1uM” value was determined as 3.99%.

Consider `O=C(O)CCN1C(=O)c2ccc(NC(=O)CCc3ccccc3)cc2C1=O`, for which the “hERG current change (%, negative = inhibition) at 1uM” value is reported as 14.7%.

Turning to `CC1CCCC(C)N1c1nnc(NC(=O)c2cc(-c3ccc(Br)cc3)on2)s1` (centres unmarked), the “hERG current change (%, negative = inhibition) at 1uM” value is listed as 9.26%.

For `CS(=O)Cc1cc(Sc2ccccc2)nc(-c2cccnc2)n1` (centres unmarked), the “hERG current change (%, negative = inhibition) at 1uM” value was 2.52%.

Consider `CC(Sc1nc2ccccc2s1)C(=O)NCc1ccc2c(c1)OCO2` (centres unmarked), for which the “hERG current change (%, negative = inhibition) at 1uM” value was 0.802%.

As for `COc1ccc(C(=O)N2CCSCC2)cc1OC1CCN(C(C)=O)CC1`, the “hERG current change (%, negative = inhibition) at 1uM” value is 19.5%.

For the compound `CCOC(=O)c1ccc(NC(=O)C(C)NS(=O)(=O)c2ccc(OC)cc2)cc1` (centres unmarked), the “hERG current change (%, negative = inhibition) at 1uM” value is on record as 8.79%.

Regarding `COc1ccc(C(=O)CN2C(=O)NC3(CCCCCC3)C2=O)c(OC)c1`, the “hERG current change (%, negative = inhibition) at 1uM” value is reported as -0.544%.

In the case of `CC(C)c1cc(Br)ccc1OCCN1C(=O)NC(C)(C)C1=O`, the “hERG current change (%, negative = inhibition) at 1uM” value was 10.7%.

Regarding `COc1ccc(-n2cc(CNC3CCN(C)CC3)c(-c3cccc(F)c3)n2)cc1`, the “hERG current change (%, negative = inhibition) at 1uM” value is recorded as -64.4%.

As for `O=C(Nc1ccccc1C(F)(F)F)c1ncn[nH]1`, the “hERG current change (%, negative = inhibition) at 1uM” value came to 6.12%.

As to `COc1ccc(-n2nc(C(=O)NCCCN3CCCC3=O)c3c4ccccc4n(C)c3c2=O)cc1Cl`, the “hERG current change (%, negative = inhibition) at 1uM” value came out at 22.5%.

`Cc1ccccc1CNC(=O)CCC(=O)N1Cc2ccccc2Oc2ncccc21`: the “hERG current change (%, negative = inhibition) at 1uM” value worked out at 5.73%.

Turning to `Cc1cc(C)c(C(=O)COC(=O)c2ccc(NC(=O)CC#N)cc2)cc1C`, the “hERG current change (%, negative = inhibition) at 1uM” value is 11.7%.

As for `Cc1ccc(S(=O)(=O)Nc2ccc(S(=O)(=O)Nc3nccs3)cc2)c([N+](=O)[O-])c1`, the “hERG current change (%, negative = inhibition) at 1uM” value is given as 9.28%.

As for `CC(C)c1ccc(NC(=O)[C@H](NC(=O)[C@@H]2Cc3ccccc3CN2)c2ccccc2)cc1`, the “hERG current change (%, negative = inhibition) at 1uM” value is given as -4.68%.

With `Cc1ccc(/C=C/C(=O)OCC(=O)Nc2cccc(S(=O)(=O)N(C)C)c2)o1`, the “hERG current change (%, negative = inhibition) at 1uM” value was determined as 2.87%.

Turning to `Cc1cc(C)cc(NC(=O)CSc2ccc(-c3ccco3)nn2)c1`, the “hERG current change (%, negative = inhibition) at 1uM” value was -7.48%.

Turning to `O=C(O)c1ccc(-c2ccc(/C=N/Nc3ccc([N+](=O)[O-])cc3)o2)cc1`, the “hERG current change (%, negative = inhibition) at 1uM” value is 9.43%.

For `Cc1cc(C)c[n+](-c2nc3ccccc3nc2C(=C=[N-])C#N)c1`, the “hERG current change (%, negative = inhibition) at 1uM” value came out at 15.2%.

In the case of `Cc1ccc2c(CC(=O)Nc3ccc(F)c(S(=O)(=O)N4CCOCC4)c3)coc2c1`, the “hERG current change (%, negative = inhibition) at 1uM” value came out at 12.6%.

As for `CN(Cc1ccc(C(C)(C)C)cc1)C(=O)C1CSC2(C)CCC(=O)N12` (centres unmarked), the “hERG current change (%, negative = inhibition) at 1uM” value amounted to 14.8%.

In the case of `COC(=O)/C(C#N)=C/c1ccc(-c2ccc(S(N)(=O)=O)cc2)o1`, the “hERG current change (%, negative = inhibition) at 1uM” value was 6.1%.

Consider `CN(C(=O)COC(=O)c1ccccc1Nc1ccccc1)c1c(N)n(Cc2ccccc2)c(=O)[nH]c1=O`, for which the “hERG current change (%, negative = inhibition) at 1uM” value is 23.6%.

For the compound `Cc1cc(C(F)F)n2ncc(C(=O)NCc3ccccc3F)c2n1`, the “hERG current change (%, negative = inhibition) at 1uM” value is 7.96%.

With `C/C=C/c1ccc(OCC(=O)OCC(=O)Nc2c(C)nn(-c3ccccc3)c2C)c(OC)c1`, the “hERG current change (%, negative = inhibition) at 1uM” value came out at 15.4%.

For `CC(C)(C)c1ccc(NC(=S)NCc2cccs2)cc1`, the “hERG current change (%, negative = inhibition) at 1uM” value stood at 3.56%.

On to `O=C(CCn1c(=S)[nH]c2ccccc2c1=O)NCCc1ccccc1`, for which the “hERG current change (%, negative = inhibition) at 1uM” value is 15.2%.

As to `O=C(CCCN1C(=O)[C@H]2CC=CC[C@H]2C1=O)NCc1nc(-c2ccc(Cl)cc2)no1`, the “hERG current change (%, negative = inhibition) at 1uM” value turned out to be 11%.

With `COc1cc2c(cc1Cl)C(=O)C(F)(c1ccccc1)C(=O)N2` (centres unmarked), the “hERG current change (%, negative = inhibition) at 1uM” value stood at 11.8%.

In the case of `COc1ccc(CCN(C)Cc2c(F)cccc2F)cc1OC`, the “hERG current change (%, negative = inhibition) at 1uM” value is given as -1.59%.

Regarding `CCOC(=O)C/C(C)=N/NC(=O)c1cccs1`, the “hERG current change (%, negative = inhibition) at 1uM” value is 3.86%.

With `CCN1CCN(C(=O)CCc2nc3ccccc3c(=O)[nH]2)CC1`, the “hERG current change (%, negative = inhibition) at 1uM” value is 17.9%.

With `COC(=O)c1cc(Br)ccc1NC(=O)CCNC(=O)c1ccco1`, the “hERG current change (%, negative = inhibition) at 1uM” value came out at 10.9%.

Turning to `Cc1cccc(C(=O)Nc2ccc(C(=O)N3CCCCC3C)cc2)c1` (centres unmarked), the “hERG current change (%, negative = inhibition) at 1uM” value was 1.5%.

`COC(=O)[C@@]12CCCCN1[C@H](c1ccc(-c3ccccc3)cc1)[C@H]1C(=O)N(C)C(=O)[C@H]12.O=C(O)C(F)(F)F`: the “hERG current change (%, negative = inhibition) at 1uM” value is recorded as 11.7%.

For `O=C(N/N=C\c1cccnc1)c1ccccc1O`, the “hERG current change (%, negative = inhibition) at 1uM” value is on record as -32.4%.

`CSc1ccccc1C(=O)NCCOc1ccccc1C`: the “hERG current change (%, negative = inhibition) at 1uM” value worked out at 3.54%.

In the case of `CN(CC(=O)Nc1ccc(OC(F)(F)F)cc1)C1CCCCC1.Cl`, the “hERG current change (%, negative = inhibition) at 1uM” value came out at 0.281%.

Take `Cc1ccc(C(CNS(=O)(=O)c2ccc(F)cc2C)N2CCN(C)CC2)cc1` (centres unmarked): the “hERG current change (%, negative = inhibition) at 1uM” value is given as -20.1%.

Consider `CC(C)CN1C(=O)C(=O)N(CC(=O)c2ccc3c(c2)CCCC3)C1=O`, for which the “hERG current change (%, negative = inhibition) at 1uM” value came to 13.2%.
